Assay results from PubChem BioAssay AID360 (National Center for Advancing Translational Sciences (NCATS), 2006).
In all, about 48,000 compounds went through this assay and about 550 (1.1%) were called active. About 4% were inconclusive and are not listed. Rule as the data show it: active = potency below about 15 µM; inconclusive = mostly about 16 µM to 33 µM; inactive = weaker than that. Some of the results follow.

These molecules were tested against Lysosomal acid glucosylceramidase (Homo sapiens) (UniProt P04062) (assay: Glucocerebrosidase). Details: purified enzyme, resorufin glucoside fluorescence (screen aimed at inhibitors), 20 min.
Method in brief: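 Compounds titrated against 0.2 nM normal enzyme, 30 uM resorufin beta-D-glucopyranoside substrate, citrate/phosphate buffer with taurocholate and tween-20, pH 5.9. Reaction ran 20 min at room temperature; fluorescence (Ex 548/Em 600) gave AC50.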
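Also: the screen sought inhibitors.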
Potency is read from the fitted curve at half-maximal effect.

Sequence of UniProt P04062 (P04062 whole entry, looked up): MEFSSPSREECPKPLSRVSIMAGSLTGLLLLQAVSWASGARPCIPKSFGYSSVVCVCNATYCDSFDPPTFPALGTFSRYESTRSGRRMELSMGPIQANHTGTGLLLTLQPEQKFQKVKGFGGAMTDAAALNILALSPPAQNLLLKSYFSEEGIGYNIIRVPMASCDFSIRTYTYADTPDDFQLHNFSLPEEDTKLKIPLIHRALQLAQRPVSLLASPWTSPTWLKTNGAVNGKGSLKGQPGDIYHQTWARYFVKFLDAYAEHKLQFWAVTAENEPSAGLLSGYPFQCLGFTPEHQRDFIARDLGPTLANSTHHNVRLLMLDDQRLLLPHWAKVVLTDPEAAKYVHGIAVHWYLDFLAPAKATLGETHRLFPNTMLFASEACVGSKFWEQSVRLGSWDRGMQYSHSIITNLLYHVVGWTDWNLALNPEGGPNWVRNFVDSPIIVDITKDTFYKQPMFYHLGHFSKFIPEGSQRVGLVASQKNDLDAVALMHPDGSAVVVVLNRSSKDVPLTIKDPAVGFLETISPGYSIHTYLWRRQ

Potency, inactive:
COc1ccccc1-n1c(SCC(=O)NC2CCCC2)nc2cccnc21 > 76.9 µM, O=C(c1cccc(N2CCCC2=O)c1)N1CCN(c2ccccc2)CC1 > 76.9 µM, COc1ccccc1CC(=O)NCCc1ccc(S(N)(=O)=O)cc1 > 76.9 µM, O=c1c2ccccc2nc2n1CCC2 > 76.9 µM, O=C(CSCc1ccc(F)cc1)NC1CCCC1 > 76.9 µM, Cc1cnc(NC(=O)CSc2nnc(-c3ccncc3)n2C2CCCCC2)s1 > 76.9 µM, COC(=O)c1ccc(C(=O)OC)c(N)c1 > 76.9 µM, O=C(OCC(=O)N1CCC(Cc2ccccc2)CC1)c1ccc[nH]c1=O > 76.9 µM, CCn1c(SCC(=O)OC2CCCCC2)nc2ccccc2c1=O > 76.9 µM, CCCN(Cc1cc2cccc(C)c2[nH]c1=O)C(=O)c1cccc(OC)c1 > 76.9 µM, CC(=O)C1=C(C)NC(SCC(=O)c2ccccc2)=C(C#N)C1CC(C)C (stereo unspecified) > 76.9 µM, CCOC(=O)c1c(C)n(CC(O)c2ccccc2)c2ccc(O)cc12 (stereo unspecified) > 76.9 µM, Cc1ccccc1OCc1nnc(SCC(=O)Nc2ccc3c(c2)oc2ccccc23)n1C > 76.9 µM, COCCCNC(=O)Cn1cc(C(C)=O)c2ccccc21 > 76.9 µM, Cc1ccc(NC(=O)CCN2C(=O)c3ccncc3C2=O)cc1 > 76.9 µM, c1ccc(-c2cc3c(nn2)CCc2nonc2-3)cc1 > 76.9 µM, CC(=O)c1c(C)nc(-c2ccc(Cl)cc2)nc1N=CN(C)C > 76.9 µM, CCOC(=O)N1CCN(S(=O)(=O)c2ccc3c(c2)CCN3C(=O)C2CCC2)CC1 > 76.9 µM, O=C(NCCC1=CCCCC1)C1CC(=O)N(C2CCCCCC2)C1 (stereo unspecified) > 76.9 µM, COc1ccc(S(=O)(=O)NC2(C(F)(F)F)N=C3SCCN3C2=O)cc1 (stereo unspecified) > 76.9 µM, CN(C)S(=O)(=O)N1CCN(C(=O)c2ccccc2Cl)CC1 > 76.9 µM, CCOC(=O)CCC(=O)NCc1ccc2[nH]c(C)cc2c1 > 76.9 µM, O=C1CC(N2CCN(c3ccc(O)cc3)CC2)C(=O)N1Cc1cccs1 (stereo unspecified) > 76.9 µM, Brc1ccc(-c2cn3cccnc3n2)cc1 > 76.9 µM, CN1c2ccccc2-c2nc3ccccc3n2C1c1ccncc1 (stereo unspecified) > 76.9 µM, CC(=O)Nc1nonc1-c1nc2ccccc2n1CC1CC1 > 76.9 µM, N#Cc1c(NC(=O)CSc2nc(N)cc(=O)[nH]2)sc2c1CCCCCC2 > 76.9 µM, COC(=O)[C@H](CC(C)C)NC(=O)Nc1ccc2c(c1)OCCO2 > 76.9 µM, CCOc1ccccc1NC(=O)CSc1nccn1-c1ccccc1 > 76.9 µM, Cc1sc2nc(SCC(=O)N3CCCCC3)[nH]c(=O)c2c1C, O=C(Nc1cccnc1)c1noc2c1CCCC2 > 76.9 µM, Cc1ccc(OCc2nnc(SCC(=O)Nc3sc(C)c(C)c3C#N)n2C)cc1 > 76.9 µM, CC(=O)N1CCCc2cc(S(=O)(=O)N3CCN(c4ccccn4)CC3)ccc21 > 76.9 µM, COC(=O)Cc1[nH]nc2c1C(c1cccc(OC)c1OC)C(C#N)=C(N)O2 (stereo unspecified) > 76.9 µM, Cc1ccc(-c2ccc(=O)n(CCC(=O)NCCN3CCCCC3C)n2)cc1 (stereo unspecified) > 76.9 µM, CCn1c(Cc2ccccc2)nnc1SCC(=O)OC(C)C > 76.9 µM, CN(C)S(=O)(=O)c1ccc(C(=O)OCC(=O)NC(=O)NCc2ccccc2)cc1 > 76.9 µM, COc1ccc(-c2nnc(SCC(=O)Nc3sc4c(c3C#N)CCC4)n2CC2CCCO2)cc1 (stereo unspecified) > 76.9 µM, CCOc1ccccc1N(CC(=O)O)S(=O)(=O)c1ccc(C)cc1 > 76.9 µM, Cc1cccc(NC(=O)CC2NC3CCCCC3NC2=O)c1 (stereo unspecified) > 76.9 µM, Cc1cc(C(=O)OCC(=O)Nc2cc(C(F)(F)F)ccc2N2CCOCC2)c(C)o1 > 76.9 µM, CSc1ccccc1C(=O)NCc1ccc2c(c1)OCO2 > 76.9 µM, Cc1cc(C)nc(NC(=O)C(C)N2C(=O)c3ccccc3C2=O)n1 (stereo unspecified) > 76.9 µM, C=CCn1c(C)cc(C(=O)CSc2nc3ccccc3o2)c1C > 76.9 µM, Cc1cc(NCCN2CCOCC2)n2c(nc3ccccc32)c1C#N > 76.9 µM, CN(c1ccccc1)S(=O)(=O)c1ccc(C(=O)OCC(=O)NCc2ccco2)cc1, COc1ccc(CCNS(=O)(=O)c2ccc3c(c2)CCN3C(=O)C2CC2)cc1OC > 76.9 µM, CCN(CC)CCC(=O)NC(C)(C)Cc1ccc(O)cc1 > 76.9 µM, Cc1ccc(-n2c(=O)[nH]cc(C(=O)Nc3ccc4c(c3)OCCO4)c2=O)cc1 > 76.9 µM, COC(=O)C1=C(N)Oc2cc(C)n(Cc3ccco3)c(=O)c2C1c1cccc(Cl)c1 (stereo unspecified) > 76.9 µM, CC1=[N+]([O-])C(N2CCOCC2)C(O)(c2ccccc2)C1 (stereo unspecified) > 76.9 µM, CCCCCOC(=O)C1[C@H]2C(=O)N(Cc3cccs3)C[C@]23C=C[C@H]1O3 (stereo partly specified) > 76.9 µM, CCN1C(=O)C2(Nc3ccccc3-c3nc4ccccc4n32)c2cc(OC)ccc21 (stereo unspecified) > 76.9 µM, c1ccc(-n2cnnc2SCc2cn3ccsc3n2)cc1 > 76.9 µM, COc1ccc(N2CCN(Cc3cc(=O)oc4cc5c(cc34)CCCC5)CC2)cc1 > 76.9 µM, Cc1cccc(N2CCN(C(=O)COc3cc(=O)n(C)c4ccccc34)CC2)c1C > 76.9 µM, COc1cccc(N2CC(C(=O)Nc3c(C)cccc3C)CC2=O)c1 (stereo unspecified) > 76.9 µM, COc1ccc(-c2csc3nc(C)n(-n4cccc4)c(=O)c23)cc1OC > 76.9 µM, COc1cccc(/C(O)=C2/C(=O)C(=O)N(Cc3ccco3)C2c2ccncc2)c1 (stereo unspecified) > 76.9 µM, COc1nc(N)nc(NC23CC4CC(CC(C4)C2)C3)n1, CCOC(=O)c1ccccc1NC(=O)c1ccc(NS(C)(=O)=O)cc1 > 76.9 µM, OCCNc1nc2ccccc2n1-c1ccccc1, CCOCCCNc1nc2c(c(=O)[nH]c(=O)n2C)n1CCCc1ccccc1 > 76.9 µM, O=S(=O)(c1ccccc1Cl)N1CCCC(c2nc(-c3cccnc3)no2)C1 (stereo unspecified) > 76.9 µM, CCCC(=O)Nc1cc(OC)c(OC)cc1C(=O)O > 76.9 µM, Cc1nn(C(C)(C)C)c(OC(=O)c2cccs2)c1S(=O)(=O)c1ccccc1 > 76.9 µM, CN(C(=O)c1coc(=O)c2ccccc12)c1ccc(F)cc1 > 76.9 µM, C=CCn1c(SCC(=O)c2ccc(CNC(C)=O)o2)nc2scc(C3CC3)c2c1=O > 76.9 µM, O=C(Nc1nnc(-c2ccncc2)s1)C1CCCO1 (stereo unspecified) > 76.9 µM, COc1ccc2oc(=O)c(C(=O)N3CCN(C45CC6CC(CC(C6)C4)C5)CC3)cc2c1 > 76.9 µM, CS(=O)(=O)N1CCC(C(=O)Nc2cccc(C(F)(F)F)c2)CC1, CC(C)C(NC(=O)C1CCCCC1)C(=O)Nc1ccccn1 (stereo unspecified) > 76.9 µM, CCOC(=O)COc1ccc(S(=O)(=O)Nc2ccc3c(c2)OCCO3)cc1 > 76.9 µM, COc1ccc(OCCCC(=O)N2CCCc3ccccc32)cc1 > 76.9 µM, COc1ccc(C(C)=O)cc1COC(=O)c1c(C)noc1C > 76.9 µM, Cc1cccc(OCCc2nnc(N)s2)c1C > 76.9 µM, Cc1nnc(SCC(=O)N2CCOCC2)s1 > 76.9 µM, Cc1ccccc1Nc1nc(N)nc(CSc2nc3ccccc3c(=O)n2CCCO)n1 > 76.9 µM, COc1cccc2cc(C(=O)n3ccc(C)n3)c(=O)oc12 > 76.9 µM, O=C(c1ccccc1)N(Cc1ccc(F)cc1)C1CCS(=O)(=O)C1 (stereo unspecified) > 76.9 µM, COc1ccc(N2C(=O)CCC(C(=O)N3CCCCC3)C2c2ccc(OC)c(OC)c2)cc1 (stereo unspecified) > 76.9 µM, CCCN1C2CCCC1CC(NC(=O)c1cc(OC)c(OC)c(OC)c1)C2 (stereo unspecified) > 76.9 µM, CCOc1ccc(C(C)=O)cc1N1C(=O)C2C3C=CC(O3)C2C1=O (stereo unspecified) > 76.9 µM, CCOC(=O)C1CCCN(C(=O)C2CCCN(S(C)(=O)=O)C2)C1 (stereo unspecified) > 76.9 µM, O=C(CCn1c(=O)[nH]c2ccsc2c1=O)N1CCN(c2cccc(Cl)c2)CC1 > 76.9 µM, CCN(CC)P(=O)(C(NC(=O)OC)C(F)(F)C(F)(F)C(F)(F)C(F)F)N(CC)CC (stereo unspecified) > 76.9 µM, COc1ccc(-n2c(=O)cc(N3CCN(c4ccccc4OC)CC3)[nH]c2=O)cc1 > 76.9 µM, COc1cccc(NC(=O)C2C3C=CC4(O3)C2C(=O)N(C(C)C)C4C(=O)NC2CCCCC2C)c1 (stereo unspecified) > 76.9 µM, CCOc1ccccc1OCCn1nnc2ccccc21 > 76.9 µM, COC(=O)Cn1c2c(c3cc(C)ccc31)CCCC2 > 76.9 µM, Cn1ccnc1SCC(=O)NC12CC3CC(CC(C3)C1)C2 > 76.9 µM
